# Several values for one entry are separate records, joined by “and”; a condition that tells them apart may be missing. Identical values can stand only once. Hit rate of the full screen: of about 110,000 compounds, about 230 (0.21%) showed an effect of 50% or more. The list shows a part of the results.
# Biological target: DPAP1 (Plasmodium falciparum, UniProt Q8IIJ9)
# Test: primary screen, percent inhibition; read by cleavage of a fluorogenic dipeptide substrate; higher = more effect of the substance
# Design: species or system P. falciparum D10 trophozoite lysates; single well
# Experimental: HTS was performed in black 384-well plates. The first and last two columns of each plate contained our negative (DMSO) and positive (10 μM JCP410) controls, and the 20 central columns the test compounds at 10 μM. Compounds were first diluted 50-fold into assay buffer (50 mM sodium acetate, 5 mM MgCl2, 10 mM β-mercaptoethanol, and 0.1% CHAPS, pH 5.5) from a 10 mM DMSO stock plates. One microliter of this 200 μM intermediate stock plate was dispensed into the assay plate. […] After 30 min, the reaction was quenched with 20 μL of 0.5 M acetic acid, and the fluorescent intensity measured at 523 nm (λex = 492 nm) using an Analyst HT multimode plate reader (Molecular Devices).
# 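Further: 30 min substrate incubation versus DMSO and 10 µM JCP410 controls.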
# Chain of DPAP1 (Q8IIJ9 whole entry, looked up): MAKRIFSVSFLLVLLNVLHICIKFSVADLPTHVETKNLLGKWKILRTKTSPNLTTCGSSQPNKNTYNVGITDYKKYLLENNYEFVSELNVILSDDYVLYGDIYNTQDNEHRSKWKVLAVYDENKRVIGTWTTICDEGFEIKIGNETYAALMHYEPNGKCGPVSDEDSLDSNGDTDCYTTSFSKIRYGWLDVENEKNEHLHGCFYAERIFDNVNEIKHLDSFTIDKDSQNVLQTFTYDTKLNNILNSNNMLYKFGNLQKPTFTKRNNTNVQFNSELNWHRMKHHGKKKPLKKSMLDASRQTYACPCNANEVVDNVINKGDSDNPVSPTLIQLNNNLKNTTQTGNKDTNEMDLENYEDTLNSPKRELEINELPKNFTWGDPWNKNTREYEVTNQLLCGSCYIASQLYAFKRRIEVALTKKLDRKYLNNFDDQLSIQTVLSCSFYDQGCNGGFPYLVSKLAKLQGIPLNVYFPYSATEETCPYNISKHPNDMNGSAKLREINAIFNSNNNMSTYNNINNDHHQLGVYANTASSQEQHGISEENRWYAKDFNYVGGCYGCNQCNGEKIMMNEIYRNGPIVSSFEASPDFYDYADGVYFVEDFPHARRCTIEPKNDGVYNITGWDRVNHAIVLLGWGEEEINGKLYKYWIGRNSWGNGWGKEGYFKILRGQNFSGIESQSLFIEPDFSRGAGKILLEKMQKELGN
row,SMILES,% Inhibition @ 10 uM
1,Cc1nnc(N2CCC(C(=O)N3CCN(C)CC3)CC2)c2nn(-c3ccc(Cl)cc3)c(C)c12,-1.77%
2,Cc1ccccc1NC(=O)c1cccc(N2C(=O)c3ccc(C(=O)O)cc3C2=O)c1,-1.17%
3,CC1(C)C(C=C(Cl)Cl)C1C(=O)NCCc1ccccc1 (centres unmarked),-0.615%
4,Cc1cccnc1NC(=O)C(CC(C)C)N1Cc2ccccc2C1=O (centres unmarked),-0.501%
5,O=P(O)(c1ccccc1)c1nccn1Cc1ccccc1,-2.15% and -1.77%
6,Nc1cc(-c2ccc(Cl)cc2)nn1S(=O)(=O)Cc1ccccc1,1.15%
7,CC(C)NS(=O)(=O)c1ccc(OCC(=O)NC(C)(C)C)cc1,-0.318%
8,N#C/C(=C\c1ccc(O)cc1)C(=O)NCc1cccnc1,17.3%
9,CCCCc1ccc(C(=O)O)c(C(=O)O)c1C,3.25%
10,COc1cc(CN2CCc3ccccc3C2)cc(Br)c1O,4.04%
11,O=C(CCc1nnc2ccc(N3CCOCC3)nn12)NCCC1=CCCCC1,3.25%
12,CCOC(=O)c1sc(NC(=O)COc2ccccc2OC)c(C(=O)OCC)c1C,12.3%
13,c1ccc2cc(N3CCCCC3)ncc2c1,0.751%
14,Cc1cc(=O)oc(C)c1C(=O)NCC1COc2ccccc2O1 (centres unmarked),-0.733%
15,O=C(Cn1cnc2c(nc3n2CCCCC3)c1=O)NCC1CCCO1 (centres unmarked),10.6%
16,CCOc1ccc(NC(=O)COc2ccc(OC)cc2)cc1,-4.06%
17,COc1cccc(C(=O)Nc2nc3ccccc3s2)c1OC,0.889%
18,O=C1N/C(=C/c2ccccc2Br)C(=O)N1Cc1ccc(F)cc1,-3.72%
19,Oc1oc(-c2cccc3ccccc23)nc1/C=N/c1nc2ccccc2s1,6.56%
20,COc1ccc(C(=O)Nc2sc3c(c2CN(C)C)CCCC3)cc1,-3.98%
21,CC1(C)CC(=O)C(C(C2=C(O)CC(C)(C)CC2=O)c2cc(Br)cc(C(C)(C)C)c2O)C(=O)C1 (centres unmarked),10.6%
22,CC(NC(=O)NCCCCCCNC(=O)NC(C)c1ccccc1)c1ccccc1 (centres unmarked),-1.9%

row,SMILES,% Inhibition @ 10 uM
1,CCN(CC)C(=O)CN(c1ccc(Oc2ccccc2)cc1)S(C)(=O)=O,3.46%
2,COc1ccc(CN2CCC3(C=Cc4ccccc43)CC2)cc1C,-1.64%
3,CCOC(=O)c1cc(-c2ccc(F)cc2)n(CC(=O)NCCOC)c1C,4.61%
4,Cc1ccc(OCC(O)CN2CCOCC2)cc1C (centres unmarked),-0.414%
5,C=CCn1c(-c2ccccc2)cs/c1=N\c1cccc(O)c1,-6.37%
6,c1ccc(-c2nn3c(Cn4nnc5ccccc54)nnc3s2)cc1,4.47%
7,CC(C)(C)NC(=O)c1ccccc1Cl,-0.48%
8,Cc1cccc(N2CCN(Cc3cccc([N+](=O)[O-])c3)CC2)c1C,-3.71%
9,CCOC(=O)N1CCN(C(=O)C2CC(c3cn(CC)nc3C)=NO2)CC1 (centres unmarked),-3.08%
10,CCOC(=O)C1=C(c2ccccc2)Nc2ncnn2C1c1ccc(Cl)cc1Cl (centres unmarked),-5.01%
11,CCCN1CCN(C(=O)c2cc3c(-c4ccc(OC)c(OC)c4)nn(C)c3s2)CC1,-2.29%
12,COc1ccc(C2c3c(oc4cc(C)cc(C)c4c3=O)C(=O)N2CCO)cc1OC (centres unmarked),1.67%
13,CCOC(=O)N1CCN(C(=O)CS(=O)Cc2nc(-c3ccc(OC)cc3)oc2C)CC1 (centres unmarked),2.37%
14,Cc1ccc(C(=O)Nc2ccc(S(=O)(=O)Nc3ncccn3)cc2)cc1,-7.89%
15,Cc1ccc2c(S(=O)(=O)O)ccc(O)c2n1,-8.11%
16,COc1cccc(-c2nn(C)c3sc(C(=O)NCC4COc5ccccc5O4)cc23)c1 (centres unmarked),-2.29%
17,COc1cc(C2C(C(=O)Nc3ccccc3C)=C(C)Nc3ncnn32)cc(OC)c1OC (centres unmarked),-4.91%
18,COc1ccc2oc(=O)cc(CN3CCC(C(O)(c4ccccc4)c4ccccc4)CC3)c2c1,20.2%
19,Cc1cc(O)c(C(=O)/C=C/c2cccc(O)c2)c(=O)o1,2.74%
20,O=C(CCc1nnc2n(Cc3ccc(F)cc3)c(=O)c3ccccc3n12)NCCCN1CCOCC1,-4.21%
21,Cc1ccc(NC(=O)c2c(NC(=O)CCC(=O)O)sc3c2CCCC3)cc1,1.71%
22,O=CN1Cc2ccccc2-c2ccccc2C1,-5.11%

row,SMILES,% Inhibition @ 10 uM
1,O=C(Cc1ccccc1)Nc1ncccc1Cl,-6.64%
2,COc1ccc(C(=O)Nc2nonc2-c2ccc(C)cc2)cc1,-1.07%
3,CCOc1ccc(C2C(=O)N(C3CCCCC3)CC(=O)N2Cc2ccc(C)cc2)cc1OC (centres unmarked),-0.406%
4,O=C(CN1C(=O)C(=O)c2ccccc21)NC1CCCCC1,-3.25%
5,CCOC(=O)c1[nH]c2ccc(OC)cc2c1NC(=S)N1CCN(c2ccccn2)CC1,1.02%
6,CN1C(=O)C(=Cc2cn(C)c3ccccc23)C(=O)N(C)C1=O,-8.57%
7,CC1=C(C#N)C(NC(=O)CCC2CCCCC2)(C(F)(F)F)C(=O)N1 (centres unmarked),0.221%
8,CCCc1[nH]nc2c1C(c1ccc(F)c(F)c1)C(C#N)=C(N)O2 (centres unmarked),-6.7%
9,CCn1c(C(O)c2ccccc2)nc2ccccc21 (centres unmarked),5.37%
10,O=S(=O)(NCCc1cccs1)c1ccc2ccccc2c1,0.776%
11,COC(=O)c1cccc(-n2c(CCC(=O)O)ccc2-c2cccs2)c1,2.32%
12,O=C(Nc1ccccc1NC(=O)C1CCCO1)C1CCCO1 (centres unmarked),-1.89%
13,COc1cccc(CN2CCSCC2)c1OC,1.48%
14,N=C1/C(=C\c2ccc(SCc3ccco3)o2)C(=O)N=C2SC=NN12,3.77%
15,O=C(COc1ccccc1)N1CCN(Cc2ccc(Br)cc2)CC1,1.39%
16,OC(CN1CCOCC1)(c1ccccc1)c1ccccn1 (centres unmarked),1.91%
17,Cc1cc(C)n2nc(NC(=O)c3cccnc3)nc2n1,-4.91%
18,CCCCSc1nnc2c(n1)[nH]c1c(C)cccc12,5.75%
19,Cc1cccc(C)c1N1C(=O)c2ccccc2C1=O,2.27%
20,O=C(NCc1ccc(-n2cccc2)cc1)c1ccc2c(c1)OCO2,1.32%
21,O=C(NCCCN1CCOCC1)c1cc2ccc3cccnc3c2[nH]1,-0.528%
